# Reference: US9340590B2 (priority 2011, dated 2016)
# pIC50: −log10 of the molar value. Read-outs that look alike come from different tables or passages of the source. At least one structure is not confirmed: it was looked up by name or label, or the drawing left a doubt.
# Legend:
# Assay type in all cases: cell-based
# [1] = target: hNav1.7 (Homo sapiens, UniProt Q15858); conditions: IonWorks Quattro, read-out: IWQ Use Nav1.7
# [2] = target: hNav1.3 (Homo sapiens, UniProt Q9NY46); conditions: IonWorks Quattro, read-out: IWQ Use Nav1.3
# [3] = target: hNav1.5 (Homo sapiens, UniProt Q14524); conditions: IonWorks Quattro, read-out: IWQ Use Nav1.5
# hNav1.5, sequence (Q14524 whole entry, looked up): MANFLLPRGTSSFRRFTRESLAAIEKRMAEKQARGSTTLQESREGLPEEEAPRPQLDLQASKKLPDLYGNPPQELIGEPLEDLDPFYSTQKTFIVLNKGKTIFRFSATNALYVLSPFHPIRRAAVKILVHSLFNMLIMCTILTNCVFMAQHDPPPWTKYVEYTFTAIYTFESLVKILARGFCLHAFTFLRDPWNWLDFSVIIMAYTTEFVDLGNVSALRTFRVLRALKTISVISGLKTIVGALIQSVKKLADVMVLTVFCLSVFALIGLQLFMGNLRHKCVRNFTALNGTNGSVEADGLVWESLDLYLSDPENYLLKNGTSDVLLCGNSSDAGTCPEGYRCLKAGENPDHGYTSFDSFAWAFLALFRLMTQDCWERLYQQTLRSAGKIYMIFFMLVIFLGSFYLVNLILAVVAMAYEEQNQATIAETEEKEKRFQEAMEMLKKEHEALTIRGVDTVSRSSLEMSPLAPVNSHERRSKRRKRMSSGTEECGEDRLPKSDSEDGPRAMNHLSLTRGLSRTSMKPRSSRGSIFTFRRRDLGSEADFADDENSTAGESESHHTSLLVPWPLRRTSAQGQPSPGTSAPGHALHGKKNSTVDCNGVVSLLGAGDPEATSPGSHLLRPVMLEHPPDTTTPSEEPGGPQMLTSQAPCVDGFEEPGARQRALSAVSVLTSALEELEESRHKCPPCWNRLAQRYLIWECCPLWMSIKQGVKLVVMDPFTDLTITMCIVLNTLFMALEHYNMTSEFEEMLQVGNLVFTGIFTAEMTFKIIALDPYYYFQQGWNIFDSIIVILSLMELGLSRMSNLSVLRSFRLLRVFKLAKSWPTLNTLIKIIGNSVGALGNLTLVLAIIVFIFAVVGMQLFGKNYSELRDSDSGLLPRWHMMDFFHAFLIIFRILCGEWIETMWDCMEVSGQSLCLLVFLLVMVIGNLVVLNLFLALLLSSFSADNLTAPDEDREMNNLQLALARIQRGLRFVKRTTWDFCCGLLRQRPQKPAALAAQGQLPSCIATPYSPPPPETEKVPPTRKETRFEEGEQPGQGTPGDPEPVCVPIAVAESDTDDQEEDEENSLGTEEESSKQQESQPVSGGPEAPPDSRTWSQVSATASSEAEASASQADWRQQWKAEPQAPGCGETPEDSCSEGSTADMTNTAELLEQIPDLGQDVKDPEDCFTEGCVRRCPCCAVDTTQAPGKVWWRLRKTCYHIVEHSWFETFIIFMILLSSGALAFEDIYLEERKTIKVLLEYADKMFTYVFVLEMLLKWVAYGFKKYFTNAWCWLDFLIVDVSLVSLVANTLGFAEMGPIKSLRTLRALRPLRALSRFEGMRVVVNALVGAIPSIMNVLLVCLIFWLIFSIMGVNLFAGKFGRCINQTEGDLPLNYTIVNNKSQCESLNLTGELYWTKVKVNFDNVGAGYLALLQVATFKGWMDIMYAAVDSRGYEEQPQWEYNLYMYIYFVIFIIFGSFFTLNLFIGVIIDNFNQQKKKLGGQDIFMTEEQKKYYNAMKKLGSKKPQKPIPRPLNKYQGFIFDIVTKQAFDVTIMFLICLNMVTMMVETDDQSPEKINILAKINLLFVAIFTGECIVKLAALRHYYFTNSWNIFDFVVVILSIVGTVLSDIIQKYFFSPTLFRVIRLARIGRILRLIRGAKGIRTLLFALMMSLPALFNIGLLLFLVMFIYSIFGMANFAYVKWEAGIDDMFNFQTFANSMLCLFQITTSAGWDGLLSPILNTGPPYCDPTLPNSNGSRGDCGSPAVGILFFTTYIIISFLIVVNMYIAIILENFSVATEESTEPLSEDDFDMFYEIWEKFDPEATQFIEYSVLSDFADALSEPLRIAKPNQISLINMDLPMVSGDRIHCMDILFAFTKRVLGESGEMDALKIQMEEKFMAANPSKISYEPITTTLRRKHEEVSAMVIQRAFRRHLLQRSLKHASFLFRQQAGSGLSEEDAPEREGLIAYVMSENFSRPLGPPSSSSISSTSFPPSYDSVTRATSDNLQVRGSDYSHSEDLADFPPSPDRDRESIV
# hNav1.7, sequence (Q15858 whole entry, looked up): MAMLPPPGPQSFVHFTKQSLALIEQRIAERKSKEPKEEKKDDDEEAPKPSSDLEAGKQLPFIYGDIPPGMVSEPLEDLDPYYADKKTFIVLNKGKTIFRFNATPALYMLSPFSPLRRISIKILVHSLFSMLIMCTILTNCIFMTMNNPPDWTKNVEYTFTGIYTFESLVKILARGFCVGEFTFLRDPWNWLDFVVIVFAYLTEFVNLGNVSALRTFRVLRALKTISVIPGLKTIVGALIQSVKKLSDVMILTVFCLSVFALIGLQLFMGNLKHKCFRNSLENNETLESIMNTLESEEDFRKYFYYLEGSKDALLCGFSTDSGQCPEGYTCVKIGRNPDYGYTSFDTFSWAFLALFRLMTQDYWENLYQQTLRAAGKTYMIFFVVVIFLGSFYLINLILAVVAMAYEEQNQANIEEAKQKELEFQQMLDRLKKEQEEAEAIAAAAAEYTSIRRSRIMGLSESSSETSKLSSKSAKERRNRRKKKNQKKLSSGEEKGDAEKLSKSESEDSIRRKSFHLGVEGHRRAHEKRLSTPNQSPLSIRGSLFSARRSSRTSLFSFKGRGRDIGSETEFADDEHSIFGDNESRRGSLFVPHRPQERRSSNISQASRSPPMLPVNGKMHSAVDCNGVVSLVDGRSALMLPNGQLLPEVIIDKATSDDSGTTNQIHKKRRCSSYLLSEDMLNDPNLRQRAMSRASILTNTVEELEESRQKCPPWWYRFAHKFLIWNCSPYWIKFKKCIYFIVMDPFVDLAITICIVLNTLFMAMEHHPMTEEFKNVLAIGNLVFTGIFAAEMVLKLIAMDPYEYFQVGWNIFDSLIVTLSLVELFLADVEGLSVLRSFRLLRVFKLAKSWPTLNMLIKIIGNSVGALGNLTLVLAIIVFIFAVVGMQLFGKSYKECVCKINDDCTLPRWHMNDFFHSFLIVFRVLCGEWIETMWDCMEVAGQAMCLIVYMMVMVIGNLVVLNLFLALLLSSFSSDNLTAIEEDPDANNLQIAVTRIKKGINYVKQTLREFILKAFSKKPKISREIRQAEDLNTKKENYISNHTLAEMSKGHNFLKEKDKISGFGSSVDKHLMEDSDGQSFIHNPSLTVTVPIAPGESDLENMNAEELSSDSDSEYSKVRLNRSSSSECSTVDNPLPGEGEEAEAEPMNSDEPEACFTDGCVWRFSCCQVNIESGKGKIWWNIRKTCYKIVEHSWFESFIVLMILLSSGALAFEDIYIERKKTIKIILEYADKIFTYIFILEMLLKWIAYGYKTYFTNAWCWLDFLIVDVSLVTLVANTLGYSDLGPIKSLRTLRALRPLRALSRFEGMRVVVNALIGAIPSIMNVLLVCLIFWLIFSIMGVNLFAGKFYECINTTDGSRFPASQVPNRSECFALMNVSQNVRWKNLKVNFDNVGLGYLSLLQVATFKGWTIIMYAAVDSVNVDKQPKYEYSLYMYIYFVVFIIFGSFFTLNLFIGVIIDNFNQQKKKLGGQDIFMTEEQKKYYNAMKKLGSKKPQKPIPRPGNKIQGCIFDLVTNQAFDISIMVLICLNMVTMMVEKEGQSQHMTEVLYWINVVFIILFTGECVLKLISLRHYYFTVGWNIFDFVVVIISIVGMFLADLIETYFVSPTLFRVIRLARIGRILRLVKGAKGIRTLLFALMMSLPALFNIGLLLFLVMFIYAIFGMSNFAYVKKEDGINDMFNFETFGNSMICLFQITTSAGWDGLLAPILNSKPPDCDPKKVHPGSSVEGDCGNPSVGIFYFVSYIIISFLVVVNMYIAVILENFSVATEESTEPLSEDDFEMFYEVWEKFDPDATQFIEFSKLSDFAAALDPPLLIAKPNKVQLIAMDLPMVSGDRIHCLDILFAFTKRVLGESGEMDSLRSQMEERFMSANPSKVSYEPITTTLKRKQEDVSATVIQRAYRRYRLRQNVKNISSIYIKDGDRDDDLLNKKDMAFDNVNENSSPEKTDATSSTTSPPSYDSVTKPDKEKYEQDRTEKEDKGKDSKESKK
Structure (SMILES),pIC50 ([1]; use-dependent block),pIC50 ([2]; use-dependent block),pIC50 ([3]; use-dependent block),further results
CC[C@H](C)[C@@H]1NC(=O)[C@@H]2CSSC[C@@H]3NC(=O)[C@H](C(C)C)NC(=O)[C@H](CC(C)C)NC(=O)[C@H](CC(N)=O)NC(=O)[C@@H]4CCCN4C(=O)[C@H](CCCNC(=N)N)NC(=O)[C@H](CSSC[C@H](NC(=O)[C@@H](N)CC(=O)O)C(=O)N[C@@H](CC(C)C)C(=O)NCC(=O)N[C@@H](Cc4ccccc4)C(=O)N[C@@H](Cc4ccccc4)C(=O)N[C@@H](CCCNC(=N)N)C(=O)N[C@@H](CCCCN)C(=O)N2)NC(=O)[C@H](CSSC[C@@H](C(=O)N[C@@H](CCCCN)C(=O)N[C@@H](Cc2ccc(O)cc2)C(=O)N[C@H](C(=O)N[C@@H](Cc2ccccc2)C(N)=O)C(C)C)NC(=O)[C@H](Cc2c[nH]c4ccccc24)NC(=O)[C@H](CCCCN)NC(=O)[C@H](Cc2c[nH]cn2)NC(=O)[C@H]([C@@H](C)O)NC(=O)[C@H](Cc2cn(CCOCCOCCOCCOCCOCCOCCOCCOCCOCCOCCN)nn2)NC(=O)[C@H](CO)NC3=O)NC(=O)[C@H](CCCCN)NC(=O)[C@H](CC(=O)O)NC(=O)[C@H](CC(N)=O)NC(=O)[C@H](CC(=O)O)NC(=O)[C@@H]2CCCN2C1=O [compound 542],6.52,6.69,4.99,–
CC[C@H](C)[C@@H]1NC(=O)[C@@H]2CSSC[C@@H]3NC(=O)[C@H](C(C)C)NC(=O)[C@H](CC(C)C)NC(=O)[C@H](CC(N)=O)NC(=O)[C@@H]4CCCN4C(=O)[C@H](CCCNC(=N)N)NC(=O)[C@H](CSSC[C@H](NC(=O)[C@@H](N)CC(=O)O)C(=O)N[C@@H](CC(C)C)C(=O)NCC(=O)N[C@@H](Cc4ccccc4)C(=O)N[C@@H](Cc4ccccc4)C(=O)N[C@@H](CCCNC(=N)N)C(=O)N[C@@H](CCCCN)C(=O)N2)NC(=O)[C@H](CSSC[C@@H](C(=O)N[C@@H](CCCCN)C(=O)N[C@@H](Cc2ccc(O)cc2)C(=O)N[C@H](C(=O)N[C@@H](Cc2ccccc2)C(=O)N[C@@H](Cc2cn(CCOCCOCCOCCOCCOCCOCCOCCOCCOCCOCCN)nn2)C(N)=O)C(C)C)NC(=O)[C@H](Cc2c[nH]c4ccccc24)NC(=O)[C@H](CCCCN)NC(=O)[C@H](Cc2c[nH]cn2)NC(=O)[C@H]([C@@H](C)O)NC(=O)[C@H](CCCNC(=N)N)NC(=O)[C@H](CO)NC3=O)NC(=O)[C@H](CCCCN)NC(=O)[C@H](CC(=O)O)NC(=O)[C@H](CC(N)=O)NC(=O)[C@H](CC(=O)O)NC(=O)[C@@H]2CCCN2C1=O [compound 549],6.44,6.92,< 5.30,–
CC[C@H](C)[C@@H]1NC(=O)[C@@H]2CSSC[C@@H]3NC(=O)[C@H](C(C)C)NC(=O)[C@H](CC(C)C)NC(=O)[C@H](CC(N)=O)NC(=O)[C@@H]4CCCN4C(=O)[C@H](CCCNC(=N)N)NC(=O)[C@H](CSSC[C@H](NC(=O)[C@@H](N)CC(=O)O)C(=O)N[C@@H](CC(C)C)C(=O)NCC(=O)N[C@@H](Cc4ccccc4)C(=O)N[C@@H](Cc4ccccc4)C(=O)N[C@@H](CCCNC(=N)N)C(=O)N[C@@H](CCCCN)C(=O)N2)NC(=O)[C@H](CSSC[C@@H](C(=O)N[C@@H](CCCCN)C(=O)N[C@@H](Cc2ccc(O)cc2)C(=O)N[C@H](C(=O)N[C@@H](Cc2cccc4ccccc24)C(=O)N[C@@H](Cc2cn(CCOCCOCCOCCOCCOCCOCCOCCOCCOCCOCCN)nn2)C(N)=O)C(C)C)NC(=O)[C@H](Cc2c[nH]c4ccccc24)NC(=O)[C@H](CCCCN)NC(=O)[C@H](Cc2c[nH]cn2)NC(=O)[C@H]([C@@H](C)O)NC(=O)[C@H](CCCNC(=N)N)NC(=O)[C@H](CO)NC3=O)NC(=O)[C@H](CCCCN)NC(=O)[C@H](CC(=O)O)NC(=O)[C@H](CC(N)=O)NC(=O)[C@H](CC(=O)O)NC(=O)[C@@H]2CCCN2C1=O [compound 560],6.92,7.43,< 5.30,–
CC[C@H](C)[C@@H]1NC(=O)[C@@H]2CSSC[C@@H]3NC(=O)[C@H](C(C)C)NC(=O)[C@H](CC(C)C)NC(=O)[C@H](CC(N)=O)NC(=O)[C@@H]4CCCN4C(=O)[C@H](CCCNC(=N)N)NC(=O)[C@H](CSSC[C@H](NC(=O)[C@@H](N)CC(=O)O)C(=O)N[C@@H](CC(C)C)C(=O)NCC(=O)N(C)CC(=O)N[C@@H](CCSC)C(=O)N[C@@H](CCCNC(=N)N)C(=O)N[C@@H](CCCCN)C(=O)N2)NC(=O)[C@H](CSSC[C@@H](C(=O)N[C@@H](CCCCN)C(=O)N[C@@H](Cc2ccc(O)cc2)C(=O)N[C@H](C(=O)N[C@@H](Cc2ccccc2)C(N)=O)C(C)C)NC(=O)[C@H](Cc2c[nH]c4ccccc24)NC(=O)[C@H](CCCCN)NC(=O)[C@H](Cc2c[nH]cn2)NC(=O)[C@H]([C@@H](C)O)NC(=O)[C@H](CCCNC(=N)N)NC(=O)[C@H](CO)NC3=O)NC(=O)[C@H](CCCCN)NC(=O)[C@H](CC(=O)O)NC(=O)[C@H](CC(N)=O)NC(=O)[C@H](CC(=O)O)NC(=O)[C@@H]2CCCN2C1=O [compound 658],–,–,–,"pIC50 ([1]; use-dependent protocol, hNav1.7): 5.82; pIC50 ([2]; use-dependent protocol, hNav1.3): 5.70; pIC50 ([3]; use-dependent protocol, hNav1.5): < 5.30"
CC[C@H](C)[C@@H]1NC(=O)[C@@H]2CSSC[C@@H]3NC(=O)[C@H](C(C)C)NC(=O)[C@H](CC(C)C)NC(=O)[C@H](CC(N)=O)NC(=O)[C@@H]4CCCN4C(=O)[C@H](CCCNC(=N)N)NC(=O)[C@H](CSSC[C@H](NC(=O)[C@@H](N)CC(=O)O)C(=O)N[C@@H](CC(C)C)C(=O)NCC(=O)N[C@@H](Cc4ccccc4)C(=O)N[C@@H](Cc4ccccc4)C(=O)N[C@@H](CCCNC(=N)N)C(=O)N[C@@H](CCCCN)C(=O)N2)NC(=O)[C@H](CSSC[C@@H](C(=O)N[C@@H](CCCCN)C(=O)N[C@@H](Cc2ccc(O)cc2)C(=O)N[C@@H](Cc2cn(CCOCCOCCOCCOCCOCCOCCOCCOCCOCCOCCN)nn2)C(=O)N[C@@H](Cc2ccccc2)C(N)=O)NC(=O)[C@H](Cc2c[nH]c4ccccc24)NC(=O)[C@H](CCCCN)NC(=O)[C@H](Cc2c[nH]cn2)NC(=O)[C@H](CC(C)C)NC(=O)[C@H](CCCNC(=N)N)NC(=O)[C@H](CO)NC3=O)NC(=O)[C@H](CCCCN)NC(=O)[C@H](CC(=O)O)NC(=O)[C@H](CC(N)=O)NC(=O)[C@H](CC(=O)O)NC(=O)[C@@H]2CCCN2C1=O [compound 586],7.26,7.59,< 5.30,–
CC[C@H](C)[C@@H]1NC(=O)[C@@H]2CSSC[C@@H]3NC(=O)[C@H](C(C)C)NC(=O)[C@H](CC(C)C)NC(=O)[C@H](CC(N)=O)NC(=O)[C@@H]4CCCN4C(=O)[C@H](CCCNC(=N)N)NC(=O)[C@H](CSSC[C@H](NC(=O)[C@@H](N)CC(=O)O)C(=O)N[C@@H](CC(C)C)C(=O)NCC(=O)N[C@@H](Cc4ccccc4)C(=O)N[C@@H](Cc4ccccc4)C(=O)N[C@@H](CCCNC(=N)N)C(=O)N[C@@H](CCCCN)C(=O)N2)NC(=O)[C@H](CSSC[C@@H](C(=O)N[C@@H](CCCCN)C(=O)N[C@@H](Cc2ccc(O)cc2)C(=O)N[C@H](C(=O)N[C@@H](Cc2ccccc2)C(N)=O)C(C)C)NC(=O)[C@H](Cc2c[nH]c4ccccc24)NC(=O)[C@H](CCCCN)NC(=O)[C@H](Cc2c[nH]cn2)NC(=O)[C@H]([C@@H](C)O)NC(=O)[C@H](CCCNC(=N)N)NC(=O)[C@H](CO)NC3=O)NC(=O)[C@H](CCCCN)NC(=O)[C@H](CC(=O)O)NC(=O)[C@H](Cc2cn(CCOCCOCCOCCOCCOCCOCCOCCOCCOCCOCCN)nn2)NC(=O)[C@H](CC(=O)O)NC(=O)[C@@H]2CCCN2C1=O [compound 515],7.60,8.00,5.33,–
C#CC[C@H](NC(C)=O)C(=O)NCCCC[C@@H]1NC(=O)[C@H](CC(=O)O)NC(=O)[C@@H]2CCCN2C(=O)[C@H]([C@@H](C)CC)NC(=O)[C@@H]2CSSC[C@@H]3NC(=O)[C@H](C(C)C)NC(=O)[C@H](CC(C)C)NC(=O)[C@H](CC(N)=O)NC(=O)[C@@H]4CCCN4C(=O)[C@H](CCCNC(=N)N)NC(=O)[C@H](CSSC[C@H](NC(=O)[C@@H](N)CC(=O)O)C(=O)N[C@@H](CC(C)C)C(=O)NCC(=O)N[C@@H](C)C(=O)N[C@@H](Cc4ccccc4)C(=O)N[C@@H](CCCNC(=N)N)C(=O)N[C@@H](CCCCN)C(=O)N2)NC(=O)[C@H](CSSC[C@@H](C(=O)N[C@@H](CCCCN)C(=O)N[C@@H](Cc2ccc(O)cc2)C(=O)N[C@H](C(=O)N[C@@H](Cc2ccccc2)C(N)=O)C(C)C)NC(=O)[C@H](Cc2c[nH]c4ccccc24)NC(=O)[C@H](CCCNC(=N)N)NC(=O)[C@H](Cc2c[nH]cn2)NC(=O)[C@H]([C@@H](C)O)NC(=O)[C@H](CCCNC(=N)N)NC(=O)[C@H](CO)NC3=O)NC(=O)[C@H](CCCCN)NC(=O)[C@H](CC(=O)O)NC1=O [compound 795],–,–,–,"pIC50 ([1]; use-dependent block, hNav1.7): 6.11; pIC50 ([2]; use-dependent block, hNav1.3): 6.60; pIC50 ([3]; use-dependent block, hNav1.5): 4.61"
CC[C@H](C)[C@@H]1NC(=O)[C@@H]2CSSC[C@@H]3NC(=O)[C@H](C(C)C)NC(=O)[C@H](CC(C)C)NC(=O)[C@H](CC(N)=O)NC(=O)[C@@H]4CCCN4C(=O)[C@H](CCCNC(=N)N)NC(=O)[C@H](CSSC[C@H](NC(=O)[C@H](CC(=O)O)NC(=O)[C@@H](N)Cc4cn(CCOCCOCCOCCOCCOCCOCCOCCOCCOCCOCCN)nn4)C(=O)N[C@@H](CC(C)C)C(=O)NCC(=O)N[C@@H](C)C(=O)N[C@@H](Cc4ccccc4)C(=O)N[C@@H](CCCNC(=N)N)C(=O)N[C@@H](CCCCN)C(=O)N2)NC(=O)[C@H](CSSC[C@@H](C(=O)N[C@@H](CCCCN)C(=O)N[C@@H](Cc2ccc(O)cc2)C(=O)N[C@H](C(=O)N[C@@H](Cc2ccccc2)C(N)=O)C(C)C)NC(=O)[C@H](Cc2c[nH]c4ccccc24)NC(=O)[C@H](CCCCN)NC(=O)[C@H](Cc2c[nH]cn2)NC(=O)[C@H]([C@@H](C)O)NC(=O)[C@H](CCCNC(=N)N)NC(=O)[C@H](CO)NC3=O)NC(=O)[C@H](CCCCN)NC(=O)[C@H](CC(=O)O)NC(=O)[C@H](CC(N)=O)NC(=O)[C@H](CC(=O)O)NC(=O)[C@@H]2CCCN2C1=O [compound 562],6.62,6.85,< 5.30,–
